Measurements: the antibiotic and cytotoxicity screens of Wong et al. (2023)
This is one part of the list.

Experiments:
HSkMC = human skeletal muscle cells; assay: cytotoxicity call (relative viability < 0.9); settings: 10 µM
HepG2 = assay: cytotoxicity call (relative viability < 0.9); settings: 10 µM
S. aureus RN4220 = assay: growth inhibition call (relative growth <= 0.2); settings: 50 µM

Compound | cytotoxicity call (HSkMC) | cytotoxicity call (HepG2) | growth inhibition call (S. aureus RN4220)
Cc1cc(C)c(-c2ccc(NC(=O)[C@H](Cc3ccc(C(=O)NCCS(=O)(=O)O)cc3)c3ccc(-c4ccc(C(C)(C)C)cc4)cc3)cc2)c(C)c1 | active | active | inactive
COc1ccc(S(=O)(=O)Nc2ccc3c(c2)C(=O)N([C@H](C)CO)C[C@H](C)[C@@H](CN(C)Cc2ccc(Oc4ccccc4)cc2)O3)cc1 | active | active | inactive
CC(C)(C)[S@@](=O)N1Cc2cc(C(=O)NCCc3ccncc3)nc(-c3cccc(-c4ccccc4)c3)c2[C@H]1CCO | active | inactive | inactive
COc1ccc(NC(=O)N(C)C[C@H]2OCCCC[C@H](C)Oc3ccc(NS(=O)(=O)c4ccccc4)cc3C(=O)N([C@@H](C)CO)C[C@H]2C)cc1 | inactive | inactive | inactive
C=CC[C@@H](CC(=O)N[C@H](CO)Cc1ccccc1)C(=O)NC[C@@H](OC(=O)[C@@H](CC=C)Cc1ccc(F)cc1)c1ccccc1 | inactive | inactive | inactive
O=C1NC(=O)C2(CCCCC2)N1 | inactive | inactive | inactive
O=C1CN(C(=O)c2ccc3c(c2)OCO3)CCN1 | inactive | inactive | inactive
C[C@@H]1CN([C@H](C)CO)C(=O)Cc2cc(NC(=O)C3CC3)ccc2O[C@@H]1CN(C)C(=O)Nc1ccccc1 | inactive | inactive | inactive
C[C@@H]1CN([C@@H](C)CO)C(=O)c2cccc(NS(=O)(=O)c3cccs3)c2O[C@H]1CN(C)C(=O)Nc1cccc2ccccc12 | inactive | inactive | inactive
C[C@H]1CN([C@@H](C)CO)C(=O)CCCn2cc(nn2)CO[C@@H]1CN(C)C(=O)Nc1cccc(C(F)(F)F)c1 | inactive | inactive | inactive
C[C@@H]1CN([C@H](C)CO)C(=O)c2cc(NC(=O)C3CCCCC3)ccc2O[C@@H](C)CCCCO[C@H]1CN(C)Cc1ccc(C(=O)O)cc1 | inactive | inactive | inactive
C[C@H]1CCCCO[C@H](CN(C)S(=O)(=O)c2ccc(F)cc2)[C@@H](C)CN([C@@H](C)CO)C(=O)c2cc(NC(=O)Nc3ccc4c(c3)OCO4)ccc2O1 | inactive | inactive | inactive
C[C@](N)(Cc1ccc(O)cc1)C(=O)O | inactive | inactive | inactive
CC[C@@H](C)NCc1sccc1C | inactive | inactive | inactive
CCCC(=O)Nc1ccc2c(c1)OC[C@H](C)N(Cc1ccc(-c3ccccn3)cc1)C[C@@H](C)[C@@H](OC)CN(C)C2=O | inactive | inactive | inactive
COc1ccc(CN(C)C[C@@H]2Oc3ccc(NC(=O)Cn4cnnn4)cc3C(=O)N([C@@H](C)CO)C[C@@H]2C)cc1 | inactive | inactive | inactive
C[C@@H]1CN([C@@H](C)CO)C(=O)c2cc(NC(=O)NC3CCCCC3)ccc2O[C@@H]1CN(C)C(=O)Nc1ccc(C(F)(F)F)cc1 | inactive | inactive | inactive
COc1cccc(S(=O)(=O)N[C@H]2CC[C@H](CCn3cc(-c4ccccc4OC)nn3)O[C@H]2CO)c1 | inactive | inactive | inactive
C[C@@H]1CN([C@@H](C)CO)C(=O)c2cc(NS(=O)(=O)c3ccc(Cl)cc3)ccc2O[C@@H]1CN(C)Cc1ccc(Cl)c(Cl)c1 | active | active | inactive
Cc1noc(C)c1NC(=O)N(C)C[C@@H]1Oc2ncc(C#CCC(C)C)cc2C(=O)N([C@H](C)CO)C[C@H]1C | inactive | inactive | inactive
COC(=O)c1ccc(O)cc1 | inactive | inactive | inactive
COc1cc2c3cc1Oc1cc(ccc1O)C[C@@H]1c4c(cc(OC)c(O)c4Oc4ccc(cc4)C[C@@H]3N(C)CC2)CC[N+]1(C)C | inactive | inactive | inactive
CO[C@H]1CCCNC1 | inactive | inactive | inactive
CCCC#Cc1ccc2c(c1)O[C@H](CN(C)S(=O)(=O)c1cccc(OC)c1)[C@H](C)CN([C@H](C)CO)S2(=O)=O | inactive | inactive | inactive
C[C@@H]1CN([C@@H](C)CO)C(=O)c2cccc(NS(C)(=O)=O)c2O[C@H]1CN(C)S(=O)(=O)c1cn(C)cn1 | inactive | inactive | inactive
COc1ccccc1C#Cc1ccc2c(c1)O[C@H](CN(C)C(C)=O)[C@H](C)CN([C@H](C)CO)S2(=O)=O | inactive | inactive | inactive
Cc1ccc(S(=O)(=O)Nc2ccc3c(c2)CC(=O)N([C@H](C)CO)C[C@@H](C)[C@@H](CN(C)C(=O)Nc2ccc(C(F)(F)F)cc2)O3)cc1 | inactive | inactive | inactive
